Assay results published in PubChem BioAssay (NCI).
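1) Cells in 96-well plates. 2) Compound, 48 h, 5 concentrations. 3) Linear interpolation between surrounding doses. 4) Unreached endpoint = highest concentration. The concentration for 50% growth inhibition is given as GI50.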 For part of its entries the source gives two or more results. The other results are left out here. There may be further records. For some assays here: Records of one sample usually come from different ranges of test concentrations, not given here; some values may only mark the edge of a range.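 TGI denotes the concentration required for complete inhibition of growth.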 For some assays here: The records of an entry are repeats in other runs, samples, wells, individuals or studies. Marks in square brackets tell the records apart. A, B and so on number the origins entry by entry.

Tests used:
Experiment in all cases: inhibition of tumour cell growth, NCI panel, 48 h
UACC-62 melanoma = test system: UACC-62 melanoma
RPMI-8226 leukemia = test system: RPMI-8226 leukemia
KM20L2 colon = test system: KM20L2 colon
ACHN renal = test system: ACHN renal
786-0 renal = test system: 786-0 renal
OVCAR-4 ovarian = test system: OVCAR-4 ovarian
SR leukemia = test system: SR leukemia
COLO 205 colon = test system: COLO 205 colon
NCI-H23 lung = test system: NCI-H23 lung
SF-268 CNS = test system: SF-268 CNS
SN12C renal = test system: SN12C renal
UO-31 renal = test system: UO-31 renal
MCF7 breast = test system: MCF7 breast
K-562 leukemia = test system: K-562 leukemia
HT29 colon = test system: HT29 colon
LOX IMVI melanoma = test system: LOX IMVI melanoma
M14 melanoma = test system: M14 melanoma
SK-MEL-5 melanoma = test system: SK-MEL-5 melanoma
OVCAR-5 ovarian = test system: OVCAR-5 ovarian
KM12 colon = test system: KM12 colon
TK-10 renal = test system: TK-10 renal
PC-3 prostate = test system: PC-3 prostate
NCI/ADR-RES ovarian = test system: NCI/ADR-RES ovarian
SW-620 colon = test system: SW-620 colon
HCT-116 colon = test system: HCT-116 colon
OVCAR-8 ovarian = test system: OVCAR-8 ovarian
SNB-78 CNS = test system: SNB-78 CNS
IGROV1 ovarian = test system: IGROV1 ovarian
HOP-62 NSCLC = test system: HOP-62 NSCLC
SF-539 CNS = test system: SF-539 CNS
A549 NSCLC = test system: A549 NSCLC

C#CCN1CCN(C(=S)N/N=C(\C)c2ccccn2)CC1
TGI (UACC-62 melanoma): 129 nM and 2.67 µM | TGI (RPMI-8226 leukemia): 79.8 nM and 11.7 µM

CC(=O)OCC1OC(OC2CC3C(C)(C)C(OC(C)=O)CC[C@]3(C)C3CCC45CC4(CC[C@H]5C(C)CC(O)C4OC4(C)C)[C@]23C)C(O)C(O)C1O (some centres not stated)
TGI (KM20L2 colon): > 60 µM and 3.26 µM | TGI (UACC-62 melanoma): > 60 µM and 4.01 µM

COc1cc(-c2oc3c(OC)c(OC)cc(O)c3c(=O)c2OC)ccc1O
TGI (ACHN renal): > 100 µM [sample A, 1 test] and 5 µM [sample B, 1 test]

CC[C@@]1(O)C(=O)OCc2c1cc1n(c2=O)Cc2cc3cc(OC)ccc3nc2-1
TGI (786-0 renal): 70.3 nM, 470 nM, 28.1 µM | TGI (OVCAR-4 ovarian): 623 nM and > 100 µM | TGI (SR leukemia): 6.82 µM and 14.5 nM | TGI (COLO 205 colon): 3.27 µM and 73.7 µM | TGI (NCI-H23 lung): 81.5 nM, 195 nM, 24 µM | TGI (SF-268 CNS): 727 nM and > 100 µM | TGI (SN12C renal): 1.9 µM and 25.5 nM | TGI (UACC-62 melanoma): 12.9 nM and 264 nM | TGI (UO-31 renal): 351 nM and > 100 µM | TGI (ACHN renal): 109 nM, 1.52 µM, 1.21 µM

Cc1cc2c(c3oc(C(O)(CO)C4CO4)cc(=O)c13)C(=O)c1c(O)cccc1C2=O (configuration not stated)
TGI (MCF7 breast): 3.16 nM and 0.29 nM | TGI (786-0 renal): 1.66 nM and 0.152 nM | TGI (K-562 leukemia): 175 nM, > 37.5 µM, > 100 µM | TGI (OVCAR-4 ovarian): 6.61 nM and 17 µM | TGI (HT29 colon): 5.31, 3.82, 4.28, 34.1 nM | TGI (LOX IMVI melanoma): 1.93 nM and 0.182 nM | TGI (M14 melanoma): 4.19 nM, 1.29 nM, 16.2 nM | TGI (SK-MEL-5 melanoma): 4.5 nM and 0.186 nM | TGI (SF-268 CNS): 168 nM, 4.41 nM, 19.1 nM | TGI (SN12C renal): 2.15 nM and 0.104 nM | TGI (RPMI-8226 leukemia): 4.61 nM and 0.264 nM | GI50 (OVCAR-5 ovarian): 0.228 nM and 3.75 nM | TGI (KM12 colon): 2.57 nM and 0.256 nM | TGI (TK-10 renal): 7.46 nM, 8.67 nM, 90.6 nM | TGI (PC-3 prostate): 2.57 nM and 0.207 nM | TGI (NCI/ADR-RES ovarian): 7.74 nM and 0.232 nM | TGI (SW-620 colon): 3.09 nM and 0.24 nM | TGI (HCT-116 colon): 3.01 nM and 0.151 nM | TGI (OVCAR-8 ovarian): 2.2 nM and 0.188 nM

CO[C@H]1[C@H](O)[C@H](O[C@H]2CC[C@@]3(C)[C@H](CC[C@@H]4[C@@H]3CC[C@]3(C)[C@@H](C5=CC(=O)OC5)CC[C@]43O)C2)O[C@@H](C)[C@@H]1O
TGI (SNB-78 CNS): 9.01 nM and > 100 µM | TGI (OVCAR-5 ovarian): 3.73 nM and 49.6 nM | TGI (IGROV1 ovarian): 1.35 nM and 54.2 nM | TGI (HOP-62 NSCLC): 1.1 nM and 12.3 nM

CCC(=O)OC1CCn2c1nc1c2C(=O)C(C)=C(N2CC2)C1=O (configuration not stated)
TGI (786-0 renal): 40.7 nM and 601 nM | TGI (SF-539 CNS): 29.7 nM and 314 nM | TGI (K-562 leukemia): 477 nM and 10.8 µM | TGI (A549 NSCLC): 86.5 nM and 934 nM | GI50 (SR leukemia): 4.42 nM and 3.61 µM | TGI (SR leukemia): 24.9 nM and 32.8 µM | GI50 (RPMI-8226 leukemia): 38.7 nM and 1.09 µM | TGI (RPMI-8226 leukemia): 267 nM and 15 µM | TGI (TK-10 renal): 150 nM and 2.88 µM
